The campaign covered roughly 310,000 compounds. About 14,000 (4.5%) showed an effect of 50% or more. The effect is printed as a negative number. The list shows a part of the results.
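Note: peak tail current of the secondary pulse compared with the same well before compound.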

The target of the test is human ether-à-go-go-related gene (hERG) potassium channel (human, UniProt Q12809). Kind of test: primary screen, population patch clamp on CHO cells stably expressing hERG.
Sequence of human ether-à-go-go-related gene (hERG) potassium channel (Q12809 whole entry, looked up): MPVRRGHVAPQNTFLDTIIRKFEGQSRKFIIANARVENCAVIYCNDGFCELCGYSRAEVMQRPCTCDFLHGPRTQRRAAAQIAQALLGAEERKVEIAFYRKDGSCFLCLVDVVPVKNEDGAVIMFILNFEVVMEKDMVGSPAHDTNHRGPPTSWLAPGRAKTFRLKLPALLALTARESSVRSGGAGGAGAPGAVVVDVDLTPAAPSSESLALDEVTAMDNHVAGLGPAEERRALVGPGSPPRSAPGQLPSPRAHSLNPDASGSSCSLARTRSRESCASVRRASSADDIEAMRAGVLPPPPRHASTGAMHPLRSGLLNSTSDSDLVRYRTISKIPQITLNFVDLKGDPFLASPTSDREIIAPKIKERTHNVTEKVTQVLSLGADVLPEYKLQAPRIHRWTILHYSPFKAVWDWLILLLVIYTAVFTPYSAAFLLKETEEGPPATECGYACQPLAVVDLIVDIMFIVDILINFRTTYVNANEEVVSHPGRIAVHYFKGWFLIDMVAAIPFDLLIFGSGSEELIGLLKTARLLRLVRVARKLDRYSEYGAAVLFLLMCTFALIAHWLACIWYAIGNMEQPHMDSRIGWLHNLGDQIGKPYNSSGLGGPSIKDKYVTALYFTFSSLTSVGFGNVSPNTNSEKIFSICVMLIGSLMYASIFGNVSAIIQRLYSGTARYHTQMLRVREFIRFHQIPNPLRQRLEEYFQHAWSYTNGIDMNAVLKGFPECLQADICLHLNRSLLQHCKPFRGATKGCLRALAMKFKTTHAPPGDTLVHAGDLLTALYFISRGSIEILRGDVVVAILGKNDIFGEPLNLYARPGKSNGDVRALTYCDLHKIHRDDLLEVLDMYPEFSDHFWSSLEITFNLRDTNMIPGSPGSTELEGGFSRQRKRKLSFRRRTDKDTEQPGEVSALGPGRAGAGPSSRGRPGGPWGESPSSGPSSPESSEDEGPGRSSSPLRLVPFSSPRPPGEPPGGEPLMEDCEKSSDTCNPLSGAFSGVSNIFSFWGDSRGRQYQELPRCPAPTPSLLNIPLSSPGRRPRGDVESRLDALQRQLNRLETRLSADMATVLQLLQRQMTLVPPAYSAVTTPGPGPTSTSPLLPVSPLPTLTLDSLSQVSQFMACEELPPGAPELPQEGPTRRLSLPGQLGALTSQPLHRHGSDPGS
`CC(C)N(Cc1nc(-c2ccc(Cl)cc2)no1)C(=O)C(c1ccccc1)c1ccccc1`: the “hERG current change (%, negative = inhibition) at 10uM” value was -7.12%.
The value for `Cc1ccc(S(=O)(=O)NC(=O)NCCCCNC(=O)NS(=O)(=O)c2ccc(C)cc2)cc1` was -1.26%.
With `O=C(Oc1ccc2c3c(c(=O)oc2c1)CCC3)c1ccccc1[N+](=O)[O-]`, the “hERG current change (%, negative = inhibition) at 10uM” value amounted to 3.02%.
The value for `O=C(OCc1csc(-c2ccccc2)n1)C1=NN(c2ccccc2)C(=O)CC1` was 4.47%; that for `CC(C)n1c(SCC(=O)N2CCN(C(=O)c3ccco3)CC2)nc2c1c(=O)n(C)c(=O)n2C` was -50.9%; that for `Cc1ccc(N=C2NC(=O)/C(=C/c3cccn3C)S2)cc1` was -5.73%.
Under `Cc1ccccc1CN(C)CC(=O)Nc1cccc(S(=O)(=O)N(C)c2ccccc2)c1` stands 2.13%; under `O=C(NNC(=O)C1CC(=O)N(c2ccc3c(c2)OCCO3)C1)c1ccc(F)cc1` (centres unmarked), -5.99%.
With `CC(C(=O)Nc1ccc(OCc2ccccc2)cc1)N1CCCC1` (centres unmarked), the “hERG current change (%, negative = inhibition) at 10uM” value is listed as -21.6%.
The value for `CC(C)(C)C(=O)Nc1ccccc1C(=O)OCC(=O)c1ccc2c(c1)OCCO2` was 7.1%.
The value for `COc1ccc(CCN2CC(C(=O)OC(C)C(=O)Nc3cccc(Cl)c3)CC2=O)cc1OC` (centres unmarked) was -5.73%.
Consider `Cc1[nH]c2c(C)cccc2c1CN1CCC(CO)(Cc2ccccc2)CC1`, for which the “hERG current change (%, negative = inhibition) at 10uM” value was -62.2%.
The value for `COC(=O)CCC(=O)Nc1cc(S(=O)(=O)Nc2ccc(Cl)cc2)ccc1N1CCOCC1` was -17.6%.
Under `O=C(/C=C/c1ccc2ccccc2n1)N1CCN(S(=O)(=O)c2ccccc2F)CC1` stands -15.9%; under `O=C(CC12CC3CC(CC(C3)C1)C2)NC(=S)NCc1ccco1`, 15%.
In the case of `Cc1cccc(N2CCN(S(=O)(=O)c3ccc4[nH]c(=O)c(=O)[nH]c4c3)CC2C)c1` (centres unmarked), the “hERG current change (%, negative = inhibition) at 10uM” value was 12.9%.
The value for `COc1ccc(CCNC(=O)CCc2nc3sc4c(c3c(=O)[nH]2)CCCC4)cc1` was 9.78%; that for `Cc1ccc(Cn2ccc(O)c(Cc3ccccc3)c2=O)cc1` was 8.76%.
Under `CCOC(=O)C1CCN(C(=O)COc2ccc3c(C)cc(=O)oc3c2)CC1` stands -21.8%; under `O=[N+]([O-])c1cccc(-c2nnc(C3CC3)o2)c1`, -8.07%; under `CC(=O)C1=C(O)C(=O)N(c2cc(C(C)(C)C)on2)C1c1ccc(Br)cc1` (centres unmarked), -10.1%.
Under `COCCNC(=O)c1cn(C)c2ccc(S(=O)(=O)N(C)C3CCCCC3)cc2c1=O` stands -27.7%.
Turning to `CC(C)(C)NC(=O)C(OC(=O)c1ccco1)c1ccc(Cl)cc1` (centres unmarked), the “hERG current change (%, negative = inhibition) at 10uM” value is on record as 17.8%.
The value for `Cc1ccc(C(=O)NC2CCS(=O)(=O)C2)cc1S(=O)(=O)N1CCCCCC1` (centres unmarked) was -49.2%; that for `CSc1ccccc1NC(=O)CN(C)S(=O)(=O)c1ccc(F)cc1` was -35.2%.
Under `COc1cc(OC)cc(C(=O)Nc2ccc(Nc3ccccc3)cc2)c1` stands -5.67%.
The value for `COC(=O)CN1C(=O)COc2ccc(Cl)cc21` was 7.5%; that for `CN(C)c1ccc(/C=N/NC(=O)c2ccc(Cl)cc2)cc1` was -1.48%.
As for `CCN1CCN(c2ncc3c(n2)CC(c2cc(OC)c(OC)c(OC)c2)CC3=O)CC1` (centres unmarked), the “hERG current change (%, negative = inhibition) at 10uM” value was -2.39%.
Under `CCc1ccc(N2C(=O)CC(c3ccc(F)cc3)C3=C2COC3=O)cc1` (centres unmarked) stands -15.2%; under `CN(/N=C/c1ccc(Cl)cc1Cl)c1ncc(Cl)cc1C(F)(F)F`, 8.46%.
The value for `COc1ccc(NC(=O)COc2nsnc2N2CCCCC2)cc1` was 3.59%; that for `COC(=O)c1ccc2c(=O)n(CCCCCC(=O)N3CCN(c4ccccc4)CC3)c(=O)[nH]c2c1` was -0.133%; that for `Oc1[nH]c2ccccc2c1N=Nc1nc2ccccc2s1` was -1.15%.
On to `Cc1ccc(NC(=O)CCS(=O)(=O)c2cc3[nH]c(=O)c(=O)[nH]c3cc2C)cc1`, for which the “hERG current change (%, negative = inhibition) at 10uM” value is on record as 25.1%.
Turning to `O=C([O-])/C=C\C(=O)[O-].c1ccc2nc(N3CCNCC3)ccc2c1`, the “hERG current change (%, negative = inhibition) at 10uM” value is listed as -1.6%.
Under `Cc1ccc(C(=O)Cn2nc(C)c([N+](=O)[O-])c2C)c(C)c1` stands -25.1%.
The value for `CCOc1ccc(NC(=O)CSc2nnc(-c3ccccn3)n2N)cc1` was -12%; that for `Cc1cc(C)n2nc(CNS(=O)(=O)c3ccc(C)c(C)c3)nc2n1` was 4.59%; that for `Cc1ccccc1N1CCN(c2ccc(NC(=O)C3CCCCC3C(=O)O)cc2)CC1` (centres unmarked) was 6.88%.
Consider `CCn1c(N2CCN(S(=O)(=O)c3ccc(Cl)cc3)CC2)nc2ccccc21`, for which the “hERG current change (%, negative = inhibition) at 10uM” value is on record as -48.4%.
Under `Cl.Cn1nnnc1SCCNCc1ccccc1OCc1ccc(F)cc1` stands -29.6%; under `CC1(C)CC(=NOC(=O)c2ccccc2)CC(C)(C)N1`, -13.4%.
With `Cc1nn(-c2ccccn2)c2c1C(c1ccccc1Cl)C1=C(N2)c2ccccc2C1=O` (centres unmarked), the “hERG current change (%, negative = inhibition) at 10uM” value was found to be 20.2%.
Under `O=C(CSc1ncn[nH]1)Nc1ccc(Br)cc1F` stands -5.57%.
With `COc1ccccc1/C=C1/C(=O)N(c2cc(C)cc(C)c2)C(c2cccc([N+](=O)[O-])c2)S1(=O)=O` (centres unmarked), the “hERG current change (%, negative = inhibition) at 10uM” value worked out at 11.9%.
Consider `CSCC[C@H](NC(=O)[C@@H]1CSC2c3ccccc3C(=O)N21)C(=O)NCc1ccco1` (some centres unmarked), for which the “hERG current change (%, negative = inhibition) at 10uM” value is given as -16.8%.
The value for `C=CCn1c(O)c(/C=N/NC(=O)CCCC)c(=O)[nH]c1=S` was 19.4%; that for `COc1ccc(NS(=O)(=O)c2cccc(NC(=O)c3ccccn3)c2)cc1` was -13.1%; that for `CCCC1=Nc2cc(C(=O)NCCN3CCOCC3)ccc2Sc2ccccc21` was -8.26%.
`Cc1nn(-c2ccc(C(F)(F)F)cn2)c(C)c1Oc1ccccc1O`: the “hERG current change (%, negative = inhibition) at 10uM” value amounted to 17.3%.
With `O=C(CNC(=O)c1ccc(Cl)cc1)OCC(=O)c1ccc2c(c1)OCCO2`, the “hERG current change (%, negative = inhibition) at 10uM” value was -11.8%.
On to `CCCC(=O)OCC(=O)Nc1ccccc1Sc1ccccc1`, for which the “hERG current change (%, negative = inhibition) at 10uM” value was 14.7%.
Turning to `Cc1nn(Cc2c(Cl)cccc2Cl)c(C)c1C(=O)NCc1ccc(C)n1C`, the “hERG current change (%, negative = inhibition) at 10uM” value turned out to be 1.38%.
The value for `O=C(COC(=O)Cc1n[nH]c(=O)c2ccccc12)Nc1ccc(Cl)cc1F` was 10.7%; that for `CC(C)C(=O)NC(=S)N(Cc1ccccc1)Cc1ccccc1` was -40.2%.
The value for `COc1ccc(OC)c(NP(=O)(Oc2ccc(Cl)cc2)Oc2ccc(Cl)cc2)c1` was 9.79%; that for `COc1ccc(CN(C)C(=O)Cc2ccc(OC)c(S(=O)(=O)N3CCOCC3)c2)cc1` was -20.4%; that for `O=C(N/N=C/c1cccc(F)c1)c1cc(-c2ccco2)nc2ccccc12` was 9.96%.
The value for `O=C(CN1C(=O)C2C3C=CC(C3)C2C1=O)NCc1ccc2c(c1)OCO2` (centres unmarked) was -1.81%.
With `CN1CCN(C(=O)C2CCN(S(=O)(=O)c3cnc[nH]3)CC2)CC1`, the “hERG current change (%, negative = inhibition) at 10uM” value is 12.7%.
Consider `COCCNC(=O)CN(CCc1ccccc1)S(=O)(=O)c1ccc(Br)cc1`, for which the “hERG current change (%, negative = inhibition) at 10uM” value was -14.9%.
As for `CC(C)(C)OC(=O)N[C@@H](Cc1ccccc1)C(=O)NCC1CCC(C(=O)N[C@@H](CC(=O)O)C(=O)O)CC1` (some centres unmarked), the “hERG current change (%, negative = inhibition) at 10uM” value was determined as 28.4%.
Under `CCCCc1[nH]c(=O)c(C#N)c2c1CSC(C)(C)C2` stands 7.18%; under `CCOC(=O)c1c(NC(=O)Cn2nc([N+](=O)[O-])c(Br)c2C)sc2c1CCC(C)C2` (centres unmarked), 17.6%.
The value for `CC(Cc1ccccc1)C(=O)N1CCN(C)CC1` (centres unmarked) was 14.4%; that for `CC(=O)N1c2ccc(S(=O)(=O)N3CCCC(C(=O)NCc4ccccc4Cl)C3)cc2CC1C` (centres unmarked) was -10.8%.
The value for `O=C1NC2(CCCCCC2)C(=O)N1Cc1cccc([N+](=O)[O-])c1` was 1.22%; that for `Cc1csc(NC(=O)CSCC(=O)O)c1-c1nc2ccccc2s1` was 6.16%; that for `Cc1ccc(-c2nnn(CC(=O)N(c3ccccc3F)C(C(=O)NC3CCCC3)c3ccncc3)n2)o1` (centres unmarked) was 17.6%.
On to `COc1cccc(C(=O)NC(=S)Nc2ccc3c4c(cccc24)CC3)c1`, for which the “hERG current change (%, negative = inhibition) at 10uM” value is 2.15%.
The value for `CC1=C(C(=O)OCC2CCCO2)C(c2cccc(O)c2)NC(=O)N1` (centres unmarked) was 7.76%.
The value for `O=C(CCCN1C(=O)NC2(CCCC2)C1=O)N1CCN(S(=O)(=O)c2ccccc2)CC1` was 0.403%.
The value for `CCC(=O)c1ccc(OCC(O)CNCc2ccc(F)cc2)cc1` (centres unmarked) was -52.2%; that for `CCN1C(=O)CSC1=Nc1cccc(C(=O)O)c1` was 19.2%.
Consider `CCOC(=O)N1CCN(C(=O)c2ccccc2NC(=O)c2ccc(Br)cc2)CC1`, for which the “hERG current change (%, negative = inhibition) at 10uM” value is -24.9%.
Under `O=C(c1cn(-c2ccccc2)nc1-c1cccs1)N(CCO)Cc1ccccc1` stands -11.2%.
The value for `O/N=C/c1ccc2cccc(OCc3ccccc3)c2n1` was 7.43%; that for `COc1cccc(/C=N/NC(=O)C(c2ccncc2)N2CCOCC2)c1` (centres unmarked) was 11.1%.
Under `Cc1ccc(-n2nc3c(=O)n(CC(=O)NCCC4=CCCCC4)nc(C)c3c2C)cc1` stands 2.08%; under `O=C(CN1C(=O)NC2(CCCC2)C1=O)Nc1ccc(S(=O)(=O)N2CCOCC2)cc1`, 10.4%; under `C=CC[C@H]1Cc2c(cccc2[N+](=O)[O-])[C@H](CC=C)N1`, -2.02%.
With `O=C(O)c1ccc(S(=O)(=O)c2ccc([N+](=O)[O-])cc2[N+](=O)[O-])cc1`, the “hERG current change (%, negative = inhibition) at 10uM” value is on record as 0.384%.

These data come from article PMC4336329 (PLoS ONE, 2015).
